The campaign covered roughly 310,000 compounds. About 2,200 (0.71%) showed an effect of 50% or more. The effect is printed as a negative number. This is one part of the list.
Each compound was assayed against human ether-à-go-go-related gene (hERG) potassium channel (human, UniProt Q12809) (assay: primary screen, population patch clamp on CHO cells stably expressing hERG).
human ether-à-go-go-related gene (hERG) potassium channel, sequence (Q12809 whole entry, looked up): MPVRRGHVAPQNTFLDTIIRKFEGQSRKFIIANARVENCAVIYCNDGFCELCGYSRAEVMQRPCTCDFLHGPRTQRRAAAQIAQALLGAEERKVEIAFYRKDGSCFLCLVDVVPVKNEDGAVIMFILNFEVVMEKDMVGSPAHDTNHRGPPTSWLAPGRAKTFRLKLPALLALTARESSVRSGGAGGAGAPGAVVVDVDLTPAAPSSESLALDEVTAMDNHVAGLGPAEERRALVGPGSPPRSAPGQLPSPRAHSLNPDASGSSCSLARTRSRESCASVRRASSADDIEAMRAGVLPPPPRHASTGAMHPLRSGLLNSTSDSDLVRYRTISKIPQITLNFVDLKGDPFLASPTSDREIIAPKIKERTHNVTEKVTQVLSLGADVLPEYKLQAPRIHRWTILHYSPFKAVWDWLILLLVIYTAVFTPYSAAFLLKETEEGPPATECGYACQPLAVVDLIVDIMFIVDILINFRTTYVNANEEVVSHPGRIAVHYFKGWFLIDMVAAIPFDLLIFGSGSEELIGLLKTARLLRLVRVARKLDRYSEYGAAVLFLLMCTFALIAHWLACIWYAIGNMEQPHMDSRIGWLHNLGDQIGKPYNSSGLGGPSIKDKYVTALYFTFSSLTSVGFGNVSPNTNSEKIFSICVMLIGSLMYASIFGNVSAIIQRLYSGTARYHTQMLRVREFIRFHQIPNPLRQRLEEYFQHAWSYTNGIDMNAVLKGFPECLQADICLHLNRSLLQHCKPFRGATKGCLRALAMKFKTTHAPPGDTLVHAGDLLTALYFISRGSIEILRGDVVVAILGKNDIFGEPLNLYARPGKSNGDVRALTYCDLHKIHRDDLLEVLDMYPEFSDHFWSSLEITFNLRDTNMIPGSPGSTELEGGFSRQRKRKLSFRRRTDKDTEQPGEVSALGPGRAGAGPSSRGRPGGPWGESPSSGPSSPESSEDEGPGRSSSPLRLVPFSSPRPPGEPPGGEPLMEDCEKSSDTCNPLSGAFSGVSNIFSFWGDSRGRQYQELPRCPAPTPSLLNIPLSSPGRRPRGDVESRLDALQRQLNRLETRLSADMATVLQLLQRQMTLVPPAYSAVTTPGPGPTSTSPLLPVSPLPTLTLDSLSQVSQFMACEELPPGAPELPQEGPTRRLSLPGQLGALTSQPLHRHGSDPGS

Row | SMILES | hERG current change (%, negative = inhibition) at 1uM [%]
1 | O=C(Nc1ccc2c(c1)CCC2)Nc1ccc2c(c1)OCO2 | 3.41
2 | CCn1c(=S)sc2c(=O)n(CC(=O)Nc3ccc(Cl)cc3)c(C)nc21 | 14.1
3 | CSc1ccc(C(=O)N2CCC(CCC(=O)NC3CC3)CC2)cc1 | 9.38
4 | COc1ccc(C(=O)N2CCC(C(=O)N3CCN(c4ccc(OC)cc4)CC3)CC2)cc1 | -2.46
5 | CC1O[C@@H](O[C@H](C)CC[C@@H](C)O)C(O)C[C@H]1O (some centres unmarked) | 7.55
6 | O=C1[C@@H]2[C@@H]3C[C@@H]([C@H]4ON=C(c5ccc(Cl)cc5)[C@@H]34)[C@@H]2C(=O)N1c1ccc2c(c1)OCO2 | 0.533
7 | COc1ccc2c(c1)CC/C(=C/c1ccccn1)C2=O | 12.5
8 | CCCCn1c(N)c(N(CCC(C)C)C(=O)C2CC(=O)N(c3ccc(OC)cc3OC)C2)c(=O)[nH]c1=O (centres unmarked) | -2.27
9 | COc1ccc(-n2c(C)cc(C(=O)Cn3nnc4ccccc4c3=O)c2C)cc1 | 6.13
10 | Cc1cc(C)c2ccc(N)nc2c1O | 0.961
11 | CCOC(=O)c1[nH]ncc1CN1CCC(Cc2cccc(OC)c2)(C(=O)OCC)CC1 | 6.23
12 | COC(=O)C1=C(C)N=c2s/c(=C/c3cccs3)c(=O)n2C1c1cccs1 (centres unmarked) | 2.76
13 | CC1=C(C#N)C2(O)C(=O)c3ccccc3C2(O)N1 (centres unmarked) | 16.9
14 | CC(=O)/C=C1/SC(CC(=O)O)C(=O)N1c1ccccc1 (centres unmarked) | 11.9
15 | COc1cccc(C2=CC(=O)C[C@H](c3ccc(F)cc3)C2)c1OC | -10.2
16 | Cc1cccc(NC(=O)c2cccc3c2C(=O)c2ccccc2-3)c1 | 16.2
17 | COc1cc(C(c2sc3ncnn3c2O)N2CCN(c3ccccc3F)CC2)cc(OC)c1OC (centres unmarked) | 12.3
18 | C=CCn1c(N)cc(=O)nc1SC(C)C(=O)Nc1cccc2ccccc12 (centres unmarked) | 5.37
19 | COc1ccc(NC(=O)c2ccc(NC(=O)C(C)C)cc2)c([N+](=O)[O-])c1 | 14.7
20 | COCCn1cnc2c1c(=O)n(CC(=O)c1ccc3c(c1)OCCO3)c(=O)n2Cc1ccccc1 | -3.19
21 | CCOC(=O)Cn1cc(/C=N/NC(=O)c2ccc(C#N)cc2F)c2ccccc21 | -5.54
22 | COc1ccc(-c2nc(-c3ccccn3)no2)cc1 | 12.4

Row | SMILES | hERG current change (%, negative = inhibition) at 1uM [%]
23 | Cc1ccc(NC(=O)OCCN2CCN(Cc3ccccc3)CCC2=O)cc1C | 2.16
24 | O=C(NCCN1CCc2ccccc2C1)Nc1ccc(F)cc1 | -13.7
25 | O=c1c(-c2ccccc2)coc2cc(O)ccc12 | 5.59
26 | O=C(N/C(=C/c1ccccc1)C(=O)N1CCCCC1)c1ccccc1 | 6.95
27 | COc1ccc(N2CCN(c3cc(C)c4cccc(C)c4n3)CC2)cc1 | 11.4
28 | CCOCCCNC(=O)c1ccc(CS(=O)(=O)Cc2cccc(C)c2)o1 | 12.5
29 | CCc1ccc(CNC(=O)C2CCCN(c3nc4ccccc4o3)C2)cc1 (centres unmarked) | 5.7
30 | O=C1C(=O)N(Cc2cccnc2)C(c2cccc([N+](=O)[O-])c2)/C1=C(/O)c1ccc2c(c1)OCO2 (centres unmarked) | 12
31 | CN(C)c1ccc(C=NCCC2(O)CCOC(C)(C)C2)cc1 (centres unmarked) | 14.5
32 | C/C(=N\NC(=O)c1cc(C)nc2ccccc12)c1ccc([N+](=O)[O-])cc1 | 14.7
33 | COc1cc(C2NC(=O)NC(C)=C2C(C)=O)cc(OC)c1OC (centres unmarked) | 5.4
34 | COC(=O)C(CC(C)C)NC(=O)c1ccc([N+](=O)[O-])cc1 (centres unmarked) | 0.193
35 | COc1cc(C(=O)N2CCN(S(=O)(=O)c3ccc(C)cc3)CC2)ccc1OCc1c(C)noc1C | 7.68
36 | Cc1cc(C(=O)NC2CCCCC2)c(C)n1-c1ccc(F)cc1 | -4.23
37 | CCOC(=O)c1cccc(Nc2nc(-c3cccnc3)nc3ccccc23)c1.Cl | -3.9
38 | CCCCn1nc(NC(=O)CC(C)C)c2cc3cc(OC)ccc3nc21 | 13.4
39 | Cc1nn(C)cc1C(=O)/C=C/c1ccc([N+](=O)[O-])cc1 | 6.23
40 | Cc1c(/C=N/Nc2ccc([N+](=O)[O-])cn2)c2ccccc2n1Cc1ccccc1 | 16.3
41 | CCCNc1nc(Cl)nc(NC(C)(C)C)n1 | 16.2
42 | COC(=O)[C@@H]1C[C@H]1[C@@H](NC(=O)c1ccccc1)c1ccccc1 | 4.69
43 | CC1CCc2c(sc(NC(=O)c3ccco3)c2C(=O)O)C1 (centres unmarked) | 14.4
44 | COc1ccc(-c2noc(CCCC(=O)NCC3CCCO3)n2)cc1 (centres unmarked) | 12.3

Source: article PMC4336329 (PLoS ONE, 2015)
